Reference: the supplement of paper PMC10126150
Values marked as one replicate rest on one cluster of the flow cell; about a third of the high ones do not repeat.

test system: ATP; assay: switch fluorescence ratio, 500 uM ATP over buffer (Cy3 cluster intensity, sum of 5 cycles each) (fold (ratio)); higher = stronger signal-on switching upon ATP binding; sequences stand for … in TCGTCGGCAGCGTCAGATGTGTATAAGAGACAGTTTTTTTTTTTTTTTTTTTTTTTTT…TC; conditions: aptamer strand: ATP DNA aptamer (quencher-CACCTGGGGGAGTATTGCGGAGGAAGG + anchor), 100 nM annealed; ATP concentration: 500 uM; one replicate
Summary of the method: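 Cy3-labelled switching-strand clusters on a modified Illumina MiSeq flow-cell were annealed to 100 nM quencher-labelled ATP aptamer and imaged first in selection buffer, then after 15 min with 500 uM ATP at 22 °C. NaOH stripping and re-annealing separated each of five buffer/ATP cycles, and clusters outside 100-1000 RFU were excluded. The fluorescence ratio sums target-cycle Cy3 intensity over buffer-cycle Cy3 intensity per cluster and averages it per switch-domain sequence.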
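Further: ATP exposure 15 min at 22 °C before imaging.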

Row | Sequence | switch fluorescence ratio
1 | TCAAGTTAAA | 1.04
2 | TCAATACGGT | 1.21
3 | TCAATACTT | 1.12
4 | TCAATCCTCC | 1.46
5 | TCAATCGTTT | 1.02
6 | TCAATCTAAT | 0.958
7 | TCAATGCGCT | 1.01
8 | TCAATGTGAG | 0.968
9 | TCAATTTAAA | 1.01
10 | TCACAACCTC | 1.08
11 | TCACAAGAGG | 1
12 | TCACAATAAG | 1.03
13 | TCACACCATA | 1.13
14 | TCACACTAAA | 1.04
15 | TCACACTTCG | 1.04
16 | TCACAGTTGA | 1.01
17 | TCACATATTT | 1.02
18 | TCACATCGGC | 0.998
19 | TCACCACCGA | 1.11
20 | TCACCATTTA | 1.05
21 | TCACCGACTG | 1.1
22 | TCACCTCCAA | 1.25
23 | TCACGATATT | 1.17
24 | TCACGGCCA | 1.16
25 | TCACGGTCAT | 1.06
26 | TCACGTCTCA | 1.01

Row | Sequence | switch fluorescence ratio
27 | TCACTAGTAG | 0.979
28 | TCACTGAGGA | 0.996
29 | TCACTTCGGT | 0.916
30 | TCAGACCACG | 0.992
31 | TCAGAGAAAG | 1.01
32 | TCAGAGACG | 1
33 | TCAGAGGGTC | 0.925
34 | TCAGAGTACT | 1.06
35 | TCAGAGTTCA | 1.02
36 | TCAGATATGC | 1.05
37 | TCAGATTCCG | 0.995
38 | TCAGATTGAC | 0.978
39 | TCAGCACTAG | 1.28
40 | TCAGCCAGGG | 1.29
41 | TCAGCCCCCC | 1.02
42 | TCAGCCCCGA | 0.987
43 | TCAGCCGGAG | 1.03
44 | TCAGCGAAGG | 1.02
45 | TCAGCGG | 1.03
46 | TCAGCGTTCA | 1
47 | TCAGGACAC | 1.04
48 | TCAGGAGGCC | 1.07
49 | TCAGGCATTA | 1.12
50 | TCAGGCGGTT | 0.974
51 | TCAGGCTCGC | 0.977
52 | TCAGGGGAGA | 0.999

Row | Sequence | switch fluorescence ratio
53 | TCAGGGTTCA | 0.977
54 | TCAGGTACAA | 1.05
55 | TCAGGTATTT | 1.03
56 | TCAGGTGGT | 1.1
57 | TCAGGTGTCG | 0.933
58 | TCAGGTTAGA | 1.03
59 | TCAGTAAATC | 1.03
60 | TCAGTCAGTA | 0.978
61 | TCAGTCCGTT | 1.01
62 | TCAGTCGCGT | 0.983
63 | TCAGTCTGTG | 1.05
64 | TCAGTGAAGT | 1.05
65 | TCAGTGAGAG | 1.02
66 | TCAGTGGAGC | 1.03
67 | TCAGTTCTAA | 0.986
68 | TCAGTTGCG | 1.01
69 | TCAGTTTAAG | 1
70 | TCATAAACCT | 2.4
71 | TCATAATATG | 0.99
72 | TCATACTACG | 1.09
73 | TCATAGCCGT | 1.03
74 | TCATAGGAAA | 0.987
75 | TCATCAGAAG | 1.01
76 | TCATCCCAGC | 1.96
77 | TCATCCCGAT | 1.54
78 | TCATCCGGTG | 1.41

Row | Sequence | switch fluorescence ratio
79 | TCATCGAGCG | 0.951
80 | TCATCTG | 0.999
81 | TCATCTGGAC | 1.08
82 | TCATGAGACG | 1.04
83 | TCATGAGTGA | 0.993
84 | TCATGCATGG | 1.04
85 | TCATGCCGGT | 0.912
86 | TCATGCGGCT | 0.999
87 | TCATGCTCTC | 1.01
88 | TCATGGGCCT | 1.03
89 | TCATGGGGC | 0.965
90 | TCATGTATCC | 0.985
91 | TCATGTCTGG | 0.934
92 | TCATGTTTAC | 0.956
93 | TCATTAGCTG | 1.01
94 | TCATTAGGTT | 0.983
95 | TCATTATCAG | 1.01
96 | TCATTATGGG | 0.967
97 | TCATTCGCGT | 1.27
98 | TCATTCTAT | 1.01
99 | TCATTGCATT | 1.05
100 | TCATTGGGAT | 0.976
101 | TCATTGTCG | 1.01
102 | TCATTGTTC | 1.06
103 | TCATTTCGAG | 1.75
104 | TCATTTCTTG | 0.963

Row | Sequence | switch fluorescence ratio
105 | TCCAAAATAA | 1.07
106 | TCCAAATACC | 1.16
107 | TCCAATACAG | 1.11
108 | TCCAATAGGG | 1.01
109 | TCCAATCGGG | 1.01
110 | TCCACGACCT | 1.08
111 | TCCACGATAA | 1.62
112 | TCCACGTATA | 1.25
113 | TCCACGTTAA | 1.3
114 | TCCAGAGAAC | 1.01
115 | TCCAGAGACC | 1.04
116 | TCCAGCCGAC | 1.3
117 | TCCAGTACGT | 1.01
118 | TCCATACAA | 1.02
119 | TCCATGCCT | 1.07
120 | TCCATGGTCT | 0.987
121 | TCCATGTAAG | 0.977
122 | TCCATGTTGT | 1.01
123 | TCCATTGACC | 1.08
124 | TCCATTGCCA | 1.09
125 | TCCATTGTCA | 1
126 | TCCATTTGTG | 1.01
127 | TCCCACATT | 1.02
128 | TCCCAGAAGG | 1.01
129 | TCCCATAATT | 0.999
130 | TCCCATTAGA | 0.981

Row | Sequence | switch fluorescence ratio
131 | TCCCCACACA | 1.12
132 | TCCCCCAAGT | 1.44
133 | TCCCCCCGGC | 1.46
134 | TCCCCTGCTG | 1.11
135 | TCCCGAAGTT | 1.08
136 | TCCCGAGGTG | 1.01
137 | TCCCGGGTTG | 2.59
138 | TCCCGTTAGC | 1.15
139 | TCCCTAAGGG | 1.02
140 | TCCCTATTCA | 1.02
141 | TCCCTTATAG | 1.03
142 | TCCCTTTGTT | 0.995
143 | TCCGAATTGA | 1.05
144 | TCCGAATTGT | 0.993
145 | TCCGACCCTG | 1.06
146 | TCCGACCTCT | 1.88
147 | TCCGAGGGGG | 1.01
148 | TCCGATCATG | 1.11
149 | TCCGCCATTT | 1.55
150 | TCCGCTCGGG | 1.18
151 | TCCGCTCTGG | 1.38
152 | TCCGCTGTGG | 1.75
153 | TCCGCTTAAA | 1.03
154 | TCCGGAGGG | 1.06
155 | TCCGGCCCAC | 1.59
156 | TCCGGGATAG | 4.59

Row | Sequence | switch fluorescence ratio
157 | TCCGGGATCT | 1.64
158 | TCCGGTGAAG | 1.01
159 | TCCGTACGCT | 4.21
160 | TCCGTCGGGA | 1.83
161 | TCCGTCTTAC | 2.82
162 | TCCGTGAAAT | 1.07
163 | TCCGTGGGTT | 1.01
164 | TCCGTTCT | 0.998
165 | TCCGTTTGCC | 0.964
166 | TCCTAACTCT | 1.07
167 | TCCTACACGT | 1.12
168 | TCCTACTCA | 1.32
169 | TCCTACTGAT | 1.05
170 | TCCTACTGGA | 0.924
171 | TCCTAGAGGT | 1.02
172 | TCCTAGCATT | 2.37
173 | TCCTATATC | 1
174 | TCCTATCAGC | 1.16
175 | TCCTATGCAT | 4.21
176 | TCCTATTTAG | 1
177 | TCCTCAATCT | 1.49
178 | TCCTCACTG | 1.16
179 | TCCTCATGGG | 1.04
180 | TCCTCCATC | 3.41
181 | TCCTCGAACT | 1.16
182 | TCCTCGACCT | 1.4

Row | Sequence | switch fluorescence ratio
183 | TCCTCGCCAG | 1.98
184 | TCCTCGGTTT | 1.14
185 | TCCTCTGACA | 3.21
186 | TCCTCTGT | 1.67
187 | TCCTGAATAG | 1.11
188 | TCCTGAGAG | 0.989
189 | TCCTGATCAT | 1.04
190 | TCCTGGGCA | 1.05
191 | TCCTGGTGCT | 1
192 | TCCTGGTTTG | 0.994
193 | TCCTGTAACC | 1.05
194 | TCCTTAATA | 1.04
195 | TCCTTACTGT | 1.05
196 | TCCTTAGTGG | 1.03
197 | TCCTTCCGGA | 2.31
198 | TCCTTCCTA | 2.02
199 | TCCTTGAACT | 1.13
200 | TCCTTGAGGC | 1.01
201 | TCCTTGTTGA | 1.04
